Test results published in PubChem BioAssay AID686978 (National Center for Advancing Translational Sciences (NCATS), 2013).
“And” between values parts separate entries of the source, which are not always exact repeats. Equal values may be shown once. Among all 420,000 compounds or so, about 64,000 (15%) were called active. This list was built around the results that the source calls inconclusive (neither active nor inactive); the mix of calls is not that of the screen. Calls follow the shape of the dose curve; as a rule, active = well fitted inhibition curve with a large enough effect; inconclusive = small, poorly fitted or top-dose-only effect; inactive = flat fitted curve, though single readings scatter. A potency beside an inconclusive call is a rough fit, not a confirmed value.

test: qHTS for Inhibitors of human tyrosyl-DNA phosphodiesterase 1 (TDP1): qHTS in cells in absence of CPT; conditions: DT40 Tdp1-/- hTDP1 cells, no CPT, ATP luminescence, 48 h; activity change, negative = growth inhibition: at 46.2 µM (top of the series) unless noted; also: nearly all actives have a fitted effect of over 55% in size
In short: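 Luminescent ATP content (CellTiter-Glo) served as the growth readout. Knockout chicken DT40 cells expressing human TDP1 were exposed to compounds without camptothecin for a minimum 48 hr at 37 °C.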
% is scaled to controls: 0 for no effect and ±100 for the full control effect; potency is read from the fitted curve at half-maximal effect; tags tell the direction and shape of the fitted curve.

Compound	Potency	activity change, negative = growth inhibition
COc1ccc(NC(=O)Cn2c(=O)oc3cc(S(=O)(=O)NCc4ccccc4)ccc32)c(OC)c1	active: 6.51 µM	
CSc1ccc(COC(=O)c2cc([N+](=O)[O-])ccc2N2CCOCC2)cc1	active: 0.0259 µM	
O=S(=O)(c1ccccc1)N1N=C(c2ccc(Cl)cc2)CC1c1ccco1 (stereo unspecified)	inconclusive: 20.6 µM [inhibitor, single point]	
COc1ccc(Cc2nc3ccccc3n2CC(=O)N/N=C/c2ccc(O)cc2)cc1OC	inactive	
COc1cccc(CN(C)C(=O)CC2C(=O)NCCN2C2Cc3ccccc3C2)c1 (stereo unspecified)	inactive	
N#Cc1ccc(OCC(O)CN2CCC(C(O)(c3ccccc3)c3ccccc3)CC2)cc1 (stereo unspecified)	inconclusive: 18.4 µM [inhibitor, single point]	
Cc1cc(C(=O)CCl)c(C)n1CC1COc2ccccc2O1 (stereo unspecified)	active: 2.59 µM	
COc1cc(NC(=O)C2CCN(S(=O)(=O)c3ccc4c(c3)oc(=O)n4C)CC2)cc(OC)c1	active: 20.6 µM	
CC1CCCCC1NC(=S)NC(=O)c1sc2ccccc2c1Cl (stereo unspecified)	inconclusive: 20.6 µM [inhibitor, partial curve]	
O=C(CSC1=Nc2ccccc2C2=NC(Cc3ccccc3)C(=O)N12)Nc1ccccc1C(F)(F)F (stereo unspecified)	active: 25.9 µM	
COc1ccc(NS(=O)(=O)c2cc3c(cc2C)NC(=O)CO3)c(OC)c1	inconclusive: 20.6 µM [inhibitor, single point] and inconclusive: 29.1 µM [inhibitor, single point]	
CCCCC(C(=O)O)C(C)CC(=O)Nc1nncs1 (stereo unspecified)	inconclusive: 29.1 µM [inhibitor, single point]	
COc1cccc(CNC(=O)CCS(=O)(=O)c2ccc3c(c2)NC(=O)C(C)S3)c1 (stereo unspecified)	inactive	
COc1ccccc1NC(=O)NCCc1c[nH]c2ccccc12	inconclusive: 20.6 µM [inhibitor, single point]	
Cc1onc(-c2c(F)cccc2Cl)c1C(=O)NC1=NCCS1		inconclusive: -31% [inhibitor]
CCN1CCN(C2=C(Cl)C(=O)N(Cc3ccccc3)C2=O)CC1	inconclusive: 20.6 µM [inhibitor, single point]	
COc1cc2c(cc1OC)C1(CCCCC1)CN(C)C2	inactive	
CSCCNC(=O)C1(C)CCN1C(=O)c1ccc(C(C)(C)C)cc1 (stereo unspecified)	active: 14.6 µM	
COCCCNC(=O)CNC(=O)c1nn(-c2ccc(OC)c(Cl)c2)c(=O)c2ccccc12	inconclusive: 29.1 µM [inhibitor, single point]	
CC1(C(=O)Nc2cccc(Oc3ccccc3)c2)CCN1C1Cc2ccccc2C1 (stereo unspecified)	inconclusive: 20.6 µM [inhibitor, single point]	
Cc1ccc(-c2nc3ccccn3c2Nc2ccc(F)cc2)o1	inconclusive: 22.4 µM [inhibitor, single point]	
CC(CCc1ccccc1)NC(=O)COC(=O)c1cccc(N(C)C)c1 (stereo unspecified)	inconclusive: 18.4 µM [inhibitor, single point]	
O=C(c1ccco1)c1cn[nH]c1-c1ccc(Cl)cc1O	inconclusive: 16.4 µM [inhibitor, partial curve]	
COC(=O)c1ccc(CSc2nnc3nc(C)cc(C)n23)cc1	inactive	

Compound	Potency	activity change, negative = growth inhibition
COc1cnc(-c2ccccc2)nc1Oc1ccc(Cl)cc1C	inactive	
CCC(C(=O)OCC(=O)c1ccc2c(c1)NC(=O)CO2)c1ccccc1 (stereo unspecified)	active: 20.6 µM	
Cc1cc(C)c2oc(-c3cccc(N)c3)nc2c1	inconclusive: 20.6 µM [inhibitor, single point]	
CCOc1ccc(CN2C(=O)c3ccccc3Sc3ccc(C(=O)NC)cc32)cc1	inconclusive: 29.1 µM [inhibitor, single point]	
Cc1cccc(C)c1-n1nnnc1C(c1ccnc2ccccc12)N1CCN(c2ccccc2F)CC1 (stereo unspecified)	inconclusive: 29.1 µM [inhibitor, single point]	
[O-][n+]1c2cc(C(F)(F)F)ccc2c2n1CCN=C2c1ccc(Cl)cc1	inconclusive: 23.1 µM [inhibitor, single point]	
Cc1ccc(C)c(OCC(O)CN2CCCCC2C)c1 (stereo unspecified)		inconclusive: -30.5% [inhibitor]
Cc1[nH]c2ccccc2c1CN1CCC(Cc2ccccc2)CC1	active: 2.59 µM	
CC(C)CN(CC(C)C)c1nnc(NC(=O)Cn2c(=O)oc3ccccc32)s1	inconclusive: 18.4 µM [inhibitor, single point]	
COc1cc(Br)c(-c2sc(Nc3ccccc3)n[n+]2-c2ccc(F)cc2)cc1OC	inactive	
O=C(C[n+]1cccc2cc(Cl)ccc21)c1ccc2ccccc2c1	active: 3.98 µM	
Cc1cccc(N2CC(C)Cn3c2nc2c3c(=O)n(CC(=O)O)c(=O)n2C)c1 (stereo unspecified)	inactive	
CCOn1c(=O)c(-c2ccc(OC)c(OC)c2)[n+]([O-])c2ccccc21	inconclusive: 23.1 µM [inhibitor, single point]	
OC(CN1CCCCC1)Cn1c2ccccc2c2cc(Br)ccc21 (stereo unspecified)	active: 16.4 µM	
CCCc1cc(CN2CCOCC2)c(O)c(CN2CCOCC2)c1O	active: 18.4 µM	
NNC(=S)NC1CC2CC1C1C=CCC21 (stereo unspecified)	inconclusive: 18.4 µM [inhibitor, single point]	
O=c1c(C(c2ccc(O)cc2)c2c(O)nc3n(c2=O)CCS3)c(O)nc2n1CCS2	inactive	
Cc1ccc(CNC(=O)C(=O)NCCC2CCCCN2S(=O)(=O)c2cccs2)cc1 (stereo unspecified)	inconclusive: 29.1 µM [inhibitor, single point]	
Cc1ccc(-n2nc(C)c3c(C(=O)NCc4ccc(F)cc4)cc(C)nc32)cc1	inconclusive: 32.6 µM [inhibitor, single point]	
COc1ccc(/C=C2\Sc3ccc(C(=O)N4CCOCC4)cc3N(C)C2=O)cc1	inconclusive: 23.1 µM [inhibitor, single point]	
CCOC(=O)c1c(-c2ccc(C)cc2)cn2ccccc12	inconclusive: 16.4 µM [inhibitor, single point]	
O=c1c2cc(N3CCOCC3)ccc2[nH]c(=S)n1Cc1ccco1	active: 20.6 µM	
Cc1ccc2c(C(=O)CN3CCSCC3)c(C)[nH]c2c1	inconclusive: 29.1 µM [inhibitor, single point]	
CCCOc1ccc(C(=O)Nc2cccnc2)cc1	inconclusive: 29.1 µM [inhibitor, single point]	

Compound	Potency	activity change, negative = growth inhibition
CCOc1cc(CNC(=O)c2ccc3c(c2)N(C)C(=O)C2CCCCN32)cc(OCC)c1OCC (stereo unspecified)	inconclusive: 29.1 µM [inhibitor, single point]	
CSc1nnc(-c2sc3cc(C(F)(F)F)cnc3c2-c2cccnc2)n1C	active: 16.4 µM	
COc1cc(/C=C/C(=O)OCc2cn3cc(Cl)ccc3n2)ccc1O	inconclusive: 29.1 µM [inhibitor, single point]	
COc1ccc2c(c1OC)C(=O)N1c3ccccc3C(=O)N(Cc3ccco3)C21 (stereo unspecified)	active: 20 µM	
CC1CCCC(NC(=S)NC(=O)c2ccccc2Br)C1C (stereo unspecified)	inconclusive: 20.6 µM [inhibitor, single point]	
CSc1ccc(CCNC(=O)c2ccc(CS(=O)(=O)c3ccc(Br)cc3)o2)cc1	active: 20.6 µM	
Cc1ccc(-n2cnc3c(=O)[nH]cnc32)cc1[N+](=O)[O-]	inactive	
COCCNC(=O)c1cccc(Nc2nc3ccccc3n3nnnc23)c1	inconclusive: 7.31 µM [inhibitor, partial curve]	
CCCOC(c1ccccc1)(c1ccc(C(F)(F)F)cc1)C(Oc1nc(C)cc(C)n1)C(=O)O (stereo unspecified)	active: 20.6 µM	
CCc1cccc(NC(=O)CCc2nc3cccnc3n2-c2ccccc2)c1	inconclusive: 18.4 µM [inhibitor, single point]	
Cc1cc(-c2nnc(SCC(=O)Nc3ccccc3C(F)(F)F)n2N)n[nH]1	inconclusive: 29.1 µM [inhibitor, single point]	
CC1CCc2c(sc(NC(=O)c3ccc(Cl)cc3Cl)c2C#N)C1 (stereo unspecified)	inconclusive: 5.17 µM [inhibitor, full curve, poor fit]	
CSCCC1NC(=O)C(C(C)=Nc2ccccc2)=C1O (stereo unspecified)	inconclusive: 20.6 µM [inhibitor, partial curve]	
CCn1cnc2sc(C(=O)Oc3ccc(Br)cc3)c(C)c2c1=O	inconclusive: 7.31 µM [inhibitor, single point]	
COc1ccc2cc(C#N)c(SCC(=O)NNC(=O)Cc3ccccc3)nc2c1	inconclusive: 5.8 µM [inhibitor, partial curve]	
COc1ccc(C(c2nnnn2-c2ccc(OC)cc2)N2CCN(C/C=C/c3ccccc3)CC2)cc1 (stereo unspecified)	inconclusive: 23.1 µM [inhibitor, single point]	
CCOC(=O)c1nn(C)c(=S)n(C)c1=O	inactive	
CC(C)[C@@H]1Cc2[nH]n(C)c(=O)c2[C@H](c2ccc(Cl)cc2)O1	inactive	
COc1ccc(C(O)c2nc(-c3ccc4c(c3)OCO4)cs2)cc1 (stereo unspecified)	inconclusive: 18.4 µM [inhibitor, single point]	
S=c1[nH]nc(-c2cc(-c3ccco3)[nH]n2)n1-c1cccc2ccccc12	inconclusive: 25.9 µM [inhibitor, partial curve]	
COc1ccc(S(=O)(=O)N2CCN(C(C)C(=O)Nc3ccc(C(C)C)cc3)CC2)cc1 (stereo unspecified)	active: 14.6 µM	
CCCCCCCCN1C(=O)[C@H](CC(=O)NCCCCc2ccccc2)C[C@@]2(C(=O)OC)CCCCC=C12	inconclusive: 23.1 µM [inhibitor, single point]	
CCc1ccc(NC(=O)CCCOc2cc(=O)n(C)c3ccccc23)cc1	inconclusive: 23.1 µM [inhibitor, single point]	
